Some of the results follow. Values were computed here from the reads of four pooled replicates and scatter widely.
Each sequence was assayed against T1, Pho4 (S. cerevisiae) (UniProt P07270) (assay: relative binding free energy (BET-seq); higher = weaker binding). Conditions: reference: library average.
T1 sequence: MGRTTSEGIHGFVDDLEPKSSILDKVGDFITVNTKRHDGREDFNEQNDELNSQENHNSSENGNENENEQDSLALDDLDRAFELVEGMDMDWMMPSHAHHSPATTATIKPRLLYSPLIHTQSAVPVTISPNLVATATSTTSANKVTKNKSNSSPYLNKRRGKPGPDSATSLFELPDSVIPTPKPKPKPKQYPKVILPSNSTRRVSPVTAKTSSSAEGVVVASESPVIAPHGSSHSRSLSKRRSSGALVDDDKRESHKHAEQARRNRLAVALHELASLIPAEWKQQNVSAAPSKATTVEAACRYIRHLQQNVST

Sequence	relative binding free energy
GGGGTCACGTGTCTGG	0.31 kcal/mol
TGGGTCACGTGGAAAC	0.28 kcal/mol
GAGAGCACGTGAAGGT	0.26 kcal/mol
GGGGACACGTGTGAAA	0.12 kcal/mol
GAGTGCACGTGTAGGA	-0.01 kcal/mol
TTAGTCACGTGTCCGA	0.27 kcal/mol
ACTTACACGTGTGTTG	0.08 kcal/mol
CTAGTCACGTGGGCGT	0.06 kcal/mol
TGGAGCACGTGACGTT	0.08 kcal/mol
GATCTCACGTGGTTGG	0.3 kcal/mol
GATGGCACGTGTTTCT	-0.04 kcal/mol
TTATTCACGTGGAGTA	0.2 kcal/mol
CTTGTCACGTGTTCGG	0.07 kcal/mol
GACTGCACGTGGGTGA	0.05 kcal/mol
GGGTGCACGTGCGAGG	0.02 kcal/mol
AATAGCACGTGTTGTG	-0.22 kcal/mol
GGGAACACGTGTTTTT	0.19 kcal/mol
GGCGACACGTGTGTAG	0.03 kcal/mol
GTGTCCACGTGTAATT	0.1 kcal/mol
TTCGGCACGTGTGTAA	-0.17 kcal/mol
AGTTGCACGTGGGGGA	-0.09 kcal/mol
TGAATCACGTGAGGGA	0.24 kcal/mol
ATGTACACGTGGTTAA	-0.04 kcal/mol

Sequence	relative binding free energy
TGTGCCACGTGTTTAA	-0.15 kcal/mol
ATATTCACGTGAGAGA	0.34 kcal/mol
GCTAGCACGTGATGGG	0.05 kcal/mol
GGAGTCACGTGGAGGG	0.1 kcal/mol
TGTAACACGTGCTTGA	-0.01 kcal/mol
AAGTTCACGTGAATGT	0.34 kcal/mol
TGCATCACGTGGTCTG	-0.05 kcal/mol
AGGTACACGTGAGTAG	0.1 kcal/mol
TGTCTCACGTGCGGGG	0.09 kcal/mol
GAGGACACGTGTTCGG	0.07 kcal/mol
AGGTTCACGTGGTATG	0.28 kcal/mol
CGAGACACGTGTTTTG	0.05 kcal/mol
ATTAGCACGTGTGATG	-0.02 kcal/mol
TTTGGCACGTGGACTT	-0.2 kcal/mol
TTAGGCACGTGGGTCA	-0.28 kcal/mol
TTTAACACGTGGAGTC	0.13 kcal/mol
TTAAACACGTGTAGTG	0.03 kcal/mol
TTGTACACGTGTGTAA	0.04 kcal/mol
TAGTGCACGTGATATT	0.05 kcal/mol
CAGTACACGTGGGTAG	-0.06 kcal/mol
TAGAACACGTGGGGAG	-0.17 kcal/mol
GTTCGCACGTGTAGGA	0 kcal/mol
GCAGTCACGTGGCGTG	0.03 kcal/mol

Sequence	relative binding free energy
AATTGCACGTGTTGAG	0.03 kcal/mol
TGTCGCACGTGAGGGC	0.17 kcal/mol
TTCGTCACGTGCGTTT	0.12 kcal/mol
GGGTACACGTGATGCA	0.26 kcal/mol
TGTATCACGTGATTGG	0.32 kcal/mol
TTTGTCACGTGGGGTT	0.06 kcal/mol
GAAGTCACGTGAGGTA	0.34 kcal/mol
TAGAACACGTGTGATA	0.18 kcal/mol
ATTTCCACGTGGTTTA	-0.04 kcal/mol
CTCGGCACGTGTTTAG	0.08 kcal/mol
AAGTCCACGTGGTTGG	0.02 kcal/mol
AATGGCACGTGGTATA	-0.11 kcal/mol
AGGTGCACGTGTGTAG	-0.03 kcal/mol
TTAAGCACGTGGTTTA	-0.13 kcal/mol
GAGTGCACGTGGGTCT	-0.06 kcal/mol
GGAGTCACGTGTATAG	0.17 kcal/mol
AAAATCACGTGTGGGC	0.2 kcal/mol
CGTGTCACGTGATTGT	0.25 kcal/mol
GTGGACACGTGTCTGA	0.14 kcal/mol
TTAGACACGTGTTCGT	0.07 kcal/mol
TCGTGCACGTGGAGGG	-0.03 kcal/mol
GGGGGCACGTGAAGCT	0.13 kcal/mol
ATATTCACGTGATTTA	0.22 kcal/mol

Sequence	relative binding free energy
TTGTTCACGTGCACGG	0.23 kcal/mol
GTTTGCACGTGACGCG	0.1 kcal/mol
GAAGTCACGTGGGTTG	0.07 kcal/mol
ATTTTCACGTGGTGGG	0.22 kcal/mol
TATCTCACGTGGGGAG	0.14 kcal/mol
GAGTGCACGTGAGTTA	0.25 kcal/mol
TATGTCACGTGTAAGA	-0.13 kcal/mol
CTGGGCACGTGTTGGT	0.06 kcal/mol
GTTTACACGTGGGCGC	0.07 kcal/mol
TTCAGCACGTGTTATT	-0.09 kcal/mol
CGTGGCACGTGATGGT	0.03 kcal/mol
GGCTTCACGTGATGTA	0.36 kcal/mol
TATTACACGTGGAAGT	0.01 kcal/mol
GAGTCCACGTGGTTGT	-0.1 kcal/mol
GGGGACACGTGCTTGG	0.14 kcal/mol
GGGGTCACGTGTGTCT	0.11 kcal/mol
AAGGTCACGTGAGATT	0.3 kcal/mol
GGTGGCACGTGAATGT	0.24 kcal/mol
ATGCTCACGTGATGGG	0.41 kcal/mol
AGAGACACGTGTGAGT	0.08 kcal/mol
ATTTGCACGTGACGTG	0.02 kcal/mol
AGTCTCACGTGTGTAA	0.27 kcal/mol
CTGGACACGTGATGGT	0.29 kcal/mol

Sequence	relative binding free energy
GTCGCCACGTGTTGTG	0.04 kcal/mol
TCTTTCACGTGTTGTA	0.23 kcal/mol
TTCTTCACGTGGTTCA	0.21 kcal/mol
ACTATCACGTGTAGGT	0.19 kcal/mol
GAATTCACGTGATATT	0.31 kcal/mol
AGAGTCACGTGTTTCG	0.23 kcal/mol
CTGTACACGTGTGGAC	0.28 kcal/mol
TGGTTCACGTGACGTG	0.38 kcal/mol
TGGAGCACGTGCTGGT	-0.07 kcal/mol
TTTCACACGTGGTGTT	-0.03 kcal/mol
GTGTGCACGTGAAGAT	0.27 kcal/mol
AATGTCACGTGTGTGG	0.16 kcal/mol
GTAGCCACGTGAGTTT	0.22 kcal/mol
GTCGTCACGTGGGTTT	0.08 kcal/mol
TGTGGCACGTGGTCAT	-0.32 kcal/mol
GGTGTCACGTGAGTCG	0.45 kcal/mol
TTGTACACGTGGGATT	0.02 kcal/mol
ATATTCACGTGGTGAT	0.11 kcal/mol
AGTAGCACGTGGGCTT	-0.25 kcal/mol
TTATGCACGTGCGGCT	-0.09 kcal/mol
GAGGTCACGTGCGGGC	0.14 kcal/mol
CTTAGCACGTGTGTCG	-0.03 kcal/mol
GGTAGCACGTGGACTT	-0.03 kcal/mol

From the BET-seq Pho4 binding data (Le et al. 2018)
